Test results as given in PMC4336329 (PLoS ONE, 2015).
In all, about 310,000 compounds went through this assay and about 14,000 (4.5%) showed an effect of 50% or more. The effect is printed as a negative number. The list shows a part of the results.

What follows are compounds tested against human ether-à-go-go-related gene (hERG) potassium channel (human, UniProt Q12809) (assay: primary screen, population patch clamp on CHO cells stably expressing hERG).
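Note: peak tail current of the secondary pulse compared with the same well before compound.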

human ether-à-go-go-related gene (hERG) potassium channel, sequence (Q12809 whole entry, looked up): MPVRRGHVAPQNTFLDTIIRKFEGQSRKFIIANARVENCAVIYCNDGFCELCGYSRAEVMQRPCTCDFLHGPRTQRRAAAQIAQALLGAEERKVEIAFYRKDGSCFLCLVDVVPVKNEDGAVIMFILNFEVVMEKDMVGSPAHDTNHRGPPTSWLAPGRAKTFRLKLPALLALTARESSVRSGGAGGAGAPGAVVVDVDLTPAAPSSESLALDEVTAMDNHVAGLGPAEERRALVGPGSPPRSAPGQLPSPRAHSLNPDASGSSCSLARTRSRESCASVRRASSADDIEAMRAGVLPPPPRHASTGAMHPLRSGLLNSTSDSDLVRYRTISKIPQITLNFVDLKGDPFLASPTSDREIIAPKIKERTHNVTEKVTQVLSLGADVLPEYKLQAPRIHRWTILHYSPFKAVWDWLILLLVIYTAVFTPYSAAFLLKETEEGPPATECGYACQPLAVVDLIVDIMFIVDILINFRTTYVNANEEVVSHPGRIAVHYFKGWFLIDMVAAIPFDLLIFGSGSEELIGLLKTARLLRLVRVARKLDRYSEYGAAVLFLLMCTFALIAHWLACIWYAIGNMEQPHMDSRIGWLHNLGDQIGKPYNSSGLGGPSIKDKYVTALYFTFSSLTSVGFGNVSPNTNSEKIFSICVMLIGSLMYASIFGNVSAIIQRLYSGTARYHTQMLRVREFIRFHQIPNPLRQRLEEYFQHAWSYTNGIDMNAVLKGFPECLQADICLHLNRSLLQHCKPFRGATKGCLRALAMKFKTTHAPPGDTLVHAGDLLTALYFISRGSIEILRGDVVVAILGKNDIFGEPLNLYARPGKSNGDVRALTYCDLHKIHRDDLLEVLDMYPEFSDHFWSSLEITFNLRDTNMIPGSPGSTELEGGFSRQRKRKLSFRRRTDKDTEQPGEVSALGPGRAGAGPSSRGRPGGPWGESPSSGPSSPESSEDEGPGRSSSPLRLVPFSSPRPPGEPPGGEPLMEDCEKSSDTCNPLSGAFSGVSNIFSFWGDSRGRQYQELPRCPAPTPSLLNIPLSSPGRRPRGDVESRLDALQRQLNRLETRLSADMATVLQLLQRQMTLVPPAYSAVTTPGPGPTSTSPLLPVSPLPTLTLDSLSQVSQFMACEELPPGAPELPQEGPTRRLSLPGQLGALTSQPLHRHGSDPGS

| Structure (SMILES) | hERG current change (%, negative = inhibition) at 10uM [%] |
| --- | --- |
| CC(NC(=S)Nc1ccc(OC(F)F)cc1)c1ccc(F)cc1 (stereo not drawn) | -27.3 |
| CN(CC(=O)Nc1ccc(N2CCOCC2)cc1)C(=O)COc1ccccc1F | -5.44 |
| CCn1c2ccccc2c2nnc(SCC(=O)c3c(N)n(C)c(=O)n(C)c3=O)nc21 | 16.2 |
| CCO[C@@H]1OC(C(=O)NCc2nc3ccccc3[nH]2)=C[C@H](C(C)(C)C)[C@H]1CCCO | -26 |
| Cc1ccc(NC2c3ccccc3C(=O)N2CCN2CCOCC2)cc1 (stereo not drawn) | -12.9 |
| O=C(c1cccnc1)N(Cc1ccccc1)C1(C(=O)Nc2ccccc2)CCCCC1 | -20.6 |
| C=CCn1c(CCNC(=O)c2cccs2)nnc1SCC(=O)Nc1cccc(Cl)c1C | -57.6 |
| Cc1cc(Br)ccc1NC(=S)Nc1cccc([N+](=O)[O-])c1 | -8.01 |
| Cc1cc(C)c2sc(NC(=O)CN3C(=O)CCC3=O)nc2c1 | -28.1 |
| CC(C)C[C@@]12C(=O)N(c3cccc(F)c3)C(=O)N1[C@H](c1ccc(F)cc1)[C@@H]1C(=O)N(C3CCCCC3)C(=O)[C@@H]12 | -15.1 |
| COc1cc2c(cc1OC)CN(C(=O)COc1ccc(C)c(C)c1)CC2 | -11.9 |
| CCC1Oc2ccc(C)cc2N(CC(=O)NCC2COc3ccccc3O2)C1=O (stereo not drawn) | -31.3 |
| CC(C)(C)c1ccc(C(=O)NCC(=O)N2CCCCCC2)cc1 | 1.16 |
| COc1ccc(CC(=O)NCc2ccccc2Cl)cc1S(=O)(=O)N1CCOCC1 | -14.8 |
| CN(C)S(=O)(=O)c1cccc(C(=O)NCc2cccs2)c1 | -14.4 |
| N#Cc1nc(COc2ccccc2)oc1NCCN1CCOCC1 | -11.3 |
| COC(=O)c1ccccc1NC(=O)c1cnn2c(C)cc(C)nc12 | -18 |
| O=C(CCc1ccccc1)OCCOC(=O)CCc1ccccc1 | 22.1 |
| CCN1CCN(C(c2cccs2)C(C)NC(=O)c2ccco2)CC1 (stereo not drawn) | 10.6 |

| Structure (SMILES) | hERG current change (%, negative = inhibition) at 10uM [%] |
| --- | --- |
| Fc1cc(F)c2nc(N3CCCCC3)sc2c1 | 4.43 |
| Br.Cc1csc(=Nc2ccccc2)n1Cc1ccco1 | 13.8 |
| CN(C1CCCC1)C1CCN(C(=O)CNC(=O)/C=C/c2cccc(C(F)(F)F)c2)CC1 | -62.6 |
| O=C(C1CCC(CNc2nc(=S)[nH]c3ccccc23)CC1)N1CCN(c2ccccn2)CC1 (stereo not drawn) | 11.6 |
| CCc1ccc(-c2cc(C)no2)cc1S(=O)(=O)N1CCN(c2cc(C)ccc2C)CC1 | -22 |
| O=C(Nc1nc(-c2ccccn2)cs1)c1ccc2c(c1)OCCO2 | 14.9 |
| Nc1nc(-c2ccccc2)[nH]c(=O)c1N=O | 13.5 |
| CC(=O)c1ccc(NC(=O)C(C)N(C)CC(=O)Nc2cccc(F)c2)cc1 (stereo not drawn) | -17.3 |
| Cc1cc(C(C)(C)C)oc1C(=O)N(CC(=O)NC1CCCC1)c1ccc(F)cc1 | -0.604 |
| CC(=O)c1cccc(CN2CCC(n3nccc3NC(=O)CCc3ccccc3)CC2)c1 | -25.1 |
| CCOC(=O)CSc1nc2ccccc2n1C(=O)OCC | -4.27 |
| Cc1ccc(CN2CCC(n3nccc3NC(=O)CCOc3ccccc3)CC2)cc1C | -48.2 |
| CCOC(=O)c1nnn(-c2ccc([N+](=O)[O-])cc2)c1C | 8.05 |
| O=C(Cn1cnc2ccc(Br)cc2c1=O)c1cccs1 | 9.37 |
| CCN(CC(=O)Nc1sc2c(c1C#N)CCCC2)CC(=O)NC1CCS(=O)(=O)C1 (stereo not drawn) | -24.4 |
| COc1ccc(/C=N/n2nnnc2N)c(OC)c1 | 1.2 |
| Cc1ccc(-c2nnc(NCc3ccccc3)c3ccccc23)cc1 | -0.0187 |
| CCCCOC(=O)C(C)Nc1n[nH]c(=S)[nH]c1=O (stereo not drawn) | 13.1 |
| Cn1c(C(=O)NCC2CCCO2)cc2c(=O)n(C)c3ccccc3c21 (stereo not drawn) | 1.32 |

| Structure (SMILES) | hERG current change (%, negative = inhibition) at 10uM [%] |
| --- | --- |
| CCOC(=O)c1cnc2ccc(Cl)cc2c1NCCN(C)C | -22.8 |
| O=C1NC2(CCCC2)N=C1c1ccc(F)cc1 | -8.42 |
| Cc1ccc2nc(N3C(=O)C(O)=C(C(=O)c4ccc(C)o4)C3c3ccc(O)cc3)sc2c1 (stereo not drawn) | 15.8 |
| Cc1noc2ncnc(N3CCCC3)c12 | 5.93 |
| O=C(OCc1nnc(-c2ccccc2)o1)c1cccc(-n2cnnn2)c1 | 7.77 |
| CCSc1nc2[nH]ncc2c(=O)[nH]1 | 20.5 |
| CCOc1ccc(CCNC(=O)COC(=O)/C=C/c2ccccc2OC)cc1OCC | -6.23 |
| O=C(Cn1ccc2ccccc2c1=O)NCCC(=O)Nc1ccc2c(c1)OCCO2 | -0.814 |
| NC(=O)Cc1nc(-c2ccc(Br)cc2)cs1 | 4.93 |
| CCNC(=O)c1ccc(NS(=O)(=O)c2ccccc2)cc1 | 1.97 |
| Cc1ccc(CNC(=O)Nc2ccccc2)n1C | 12.3 |
| O=C(Nc1ccc2oc(-c3cccc(F)c3)nc2c1)c1ccccc1F | 4.1 |
| CC(=O)N/C(=C/c1ccc(OC(F)F)cc1)C(=O)O | 3.4 |
| CC(CC(=O)NC1CCCCC1)S(=O)(=O)c1ccc2c(c1)CCN2C(=O)C1CC1 (stereo not drawn) | 28.2 |
| CC#CC#Cc1cccc(=O)o1 | 13.5 |
| CCN1CCN(c2ccc(NC(=O)c3ccc4c(c3)[nH]c(=O)n4Cc3ccc(OC)cc3)cc2)CC1 | 1.62 |
| Cc1nc2ccccn2c1C(=O)NNS(=O)(=O)c1ccc(Cl)cc1 | 0.311 |
| COCCN(C(=O)Cc1cccs1)C(C(=O)NCc1ccc(OC)cc1)c1ccc(C)cc1 (stereo not drawn) | -14.8 |
| O=C1CSC(c2c(F)cccc2Cl)N1c1cccc(F)c1 (stereo not drawn) | -27 |
